Source: the supplement of paper PMC4967469

Columns and labels:
Assay in all cases: Viability of human cancer cell lines after 72 h of drug (GDSC screen)
FH535 = compound: Cc1cc([N+](=O)[O-])ccc1NS(=O)(=O)c1cc(Cl)ccc1Cl [FH535]; settings: top dose 32 µM; top dose inferred
Description: (§1)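 Human cancer cell lines in 384-well plates, medium with 10% serum, drug for 72 h over a 256-fold dose range (nine 2-fold or five 4-fold steps up to the top dose). Adherent lines were fixed and stained with the nucleic acid dye Syto60, suspension lines read with resazurin; signal relative to control wells, capped at 0 and 100%. One two-parameter sigmoid per drug and line, fitted in a mixed model over all curves with the slope shared within a line.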

XMD14-99 = compound: COc1cc(N2CCN(C)CC2)ccc1Nc1nc(N)c(C(=O)c2c(Cl)cccc2Cl)s1 [XMD14-99]; settings: top dose 10.24 µM; top dose inferred
Description: as §1

A-443654 = compound: Cc1n[nH]c2ccc(-c3cncc(OC[C@@H](N)Cc4c[nH]c5ccccc45)c3)cc12 [A-443654]; settings: top dose 1.024 µM; top dose inferred
Description: as §1

Dasatinib = compound: Cc1nc(Nc2ncc(C(=O)Nc3c(C)cccc3Cl)s2)cc(N2CCN(CCO)CC2)n1 [Dasatinib]; settings: top dose 1.28 µM
Description: as §1

AT-7519 = compound: O=C(NC1CCNCC1)c1n[nH]cc1NC(=O)c1c(Cl)cccc1Cl [AT-7519]; settings: top dose 10.24 µM; top dose inferred
Description: as §1

Sorafenib = compound: CNC(=O)c1cc(Oc2ccc(NC(=O)Nc3ccc(Cl)c(C(F)(F)F)c3)cc2)ccn1 [Sorafenib]; settings: top dose 4 µM
Description: as §1

PSN1 (pancreas, adherent)
AUC (FH535): 0.579
IC50 (FH535): 3170 nM
AUC (XMD14-99): 0.981
IC50 (XMD14-99): > 10200 nM
AUC (A-443654): 0.47
IC50 (A-443654): 53.6 nM
AUC (Dasatinib): 0.43
IC50 (Dasatinib): 53.1 nM
AUC (AT-7519): 0.343
IC50 (AT-7519): 254 nM
AUC (Sorafenib): 0.888
IC50 (Sorafenib): 3250 nM

RCC10RGB (kidney, adherent)
AUC (FH535): 0.773
IC50 (FH535): 28800 nM
AUC (XMD14-99): 0.953
IC50 (XMD14-99): > 10200 nM
AUC (A-443654): 0.89
IC50 (A-443654): > 1020 nM
AUC (Dasatinib): 0.737
IC50 (Dasatinib): 758 nM
AUC (AT-7519): 0.897
IC50 (AT-7519): > 10200 nM
AUC (Sorafenib): 0.954
IC50 (Sorafenib): > 4000 nM

REH (B-cell leukaemia, suspension)
AUC (FH535): 0.763
IC50 (FH535): 11100 nM
AUC (XMD14-99): 0.891
IC50 (XMD14-99): > 10200 nM
AUC (A-443654): 0.915
IC50 (A-443654): > 1020 nM
AUC (Dasatinib): 0.944
IC50 (Dasatinib): > 1280 nM
AUC (AT-7519): 0.271
IC50 (AT-7519): 147 nM
AUC (Sorafenib): 0.966
IC50 (Sorafenib): > 4000 nM

RF-48 (stomach, adherent)
AUC (FH535): 0.825
IC50 (FH535): 22500 nM
AUC (XMD14-99): 0.956
IC50 (XMD14-99): > 10200 nM
AUC (A-443654): 0.692
IC50 (A-443654): 238 nM
AUC (Dasatinib): 0.844
IC50 (Dasatinib): 1090 nM
AUC (AT-7519): 0.541
IC50 (AT-7519): 837 nM
AUC (Sorafenib): 0.909
IC50 (Sorafenib): > 4000 nM

ROS-50 (B-cell leukaemia, suspension)
AUC (FH535): 0.821
IC50 (FH535): 25600 nM
AUC (XMD14-99): 0.961
IC50 (XMD14-99): > 10200 nM
AUC (A-443654): 0.895
IC50 (A-443654): > 1020 nM
AUC (Dasatinib): 0.956
IC50 (Dasatinib): > 1280 nM
AUC (AT-7519): 0.903
IC50 (AT-7519): > 10200 nM
AUC (Sorafenib): 0.943
IC50 (Sorafenib): > 4000 nM

SCC-3 (B-cell lymphoma, suspension)
AUC (FH535): 0.946
IC50 (FH535): 31000 nM
AUC (XMD14-99): 0.939
IC50 (XMD14-99): 9180 nM
AUC (A-443654): 0.773
IC50 (A-443654): 296 nM
AUC (Dasatinib): 0.995
IC50 (Dasatinib): > 1280 nM
AUC (AT-7519): 0.33
IC50 (AT-7519): 248 nM
AUC (Sorafenib): 0.96
IC50 (Sorafenib): > 4000 nM

SCC-15 (head and neck, adherent)
AUC (FH535): 0.616
IC50 (FH535): 4650 nM
AUC (XMD14-99): 0.976
IC50 (XMD14-99): > 10200 nM
AUC (A-443654): 0.866
IC50 (A-443654): > 1020 nM
AUC (Dasatinib): 0.873
IC50 (Dasatinib): > 1280 nM
AUC (AT-7519): 0.67
IC50 (AT-7519): 2250 nM
AUC (Sorafenib): 0.905
IC50 (Sorafenib): > 4000 nM

SF126 (glioma, adherent)
AUC (FH535): 0.727
IC50 (FH535): 9210 nM
AUC (XMD14-99): 0.985
IC50 (XMD14-99): > 10200 nM
AUC (A-443654): 0.738
IC50 (A-443654): 319 nM
AUC (Dasatinib): 0.655
IC50 (Dasatinib): 220 nM
AUC (AT-7519): 0.907
IC50 (AT-7519): > 10200 nM
AUC (Sorafenib): 0.775
IC50 (Sorafenib): 1680 nM

SIG-M5 (acute myeloid leukaemia, suspension)
AUC (FH535): 0.619
IC50 (FH535): 3900 nM
AUC (XMD14-99): 0.907
IC50 (XMD14-99): 7700 nM
AUC (A-443654): 0.618
IC50 (A-443654): 124 nM
AUC (Dasatinib): 0.973
IC50 (Dasatinib): > 1280 nM
AUC (AT-7519): 0.267
IC50 (AT-7519): 171 nM
AUC (Sorafenib): 0.849
IC50 (Sorafenib): 1940 nM

SK-ES-1 (Ewing sarcoma, semi-adherent)
AUC (FH535): 0.614
IC50 (FH535): 4200 nM
AUC (XMD14-99): 0.973
IC50 (XMD14-99): > 10200 nM
AUC (A-443654): 0.676
IC50 (A-443654): 206 nM
AUC (Dasatinib): 0.979
IC50 (Dasatinib): > 1280 nM
AUC (AT-7519): 0.657
IC50 (AT-7519): 1800 nM
AUC (Sorafenib): 0.93
IC50 (Sorafenib): > 4000 nM

SK-N-DZ (neuroblastoma, adherent)
AUC (FH535): 0.808
IC50 (FH535): 16400 nM
AUC (XMD14-99): 0.988
IC50 (XMD14-99): > 10200 nM
AUC (A-443654): 0.918
IC50 (A-443654): > 1020 nM
AUC (Dasatinib): 0.897
IC50 (Dasatinib): > 1280 nM
AUC (AT-7519): 0.97
IC50 (AT-7519): > 10200 nM
AUC (Sorafenib): 0.87
IC50 (Sorafenib): 3640 nM

SU-DHL-8 (B-cell lymphoma, suspension)
AUC (FH535): 0.647
IC50 (FH535): 4960 nM
AUC (XMD14-99): 0.963
IC50 (XMD14-99): > 10200 nM
AUC (A-443654): 0.511
IC50 (A-443654): 68.6 nM
AUC (Dasatinib): 0.93
IC50 (Dasatinib): > 1280 nM
AUC (AT-7519): 0.191
IC50 (AT-7519): 83.4 nM
AUC (Sorafenib): 0.752
IC50 (Sorafenib): 1250 nM

A lower IC50 marks a more sensitive line; a limit (>, <) means that the fit lies beyond the doses tested. AUC sums up the same curve from the lowest dose to the 256-fold higher top dose; it is 1 without any effect and falls as sensitivity rises. For part of these data: The top dose, if marked as inferred, was derived from the fitted curves, not read from the paper.
